# Experimental data taken from PubChem BioAssay AID488969 (Vanderbilt High Throughput Screening Facility, 2010).
# In all, about 110,000 compounds were measured (“z-score”: median about -0.1, highest 2% from about 2 on). Some of the results follow. Activity calls are given as the source filed them.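 How the source made its calls: active means z-score in the third read window above 3 or below -3; inactive means the rest.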
# Biological target: Metabotropic glutamate receptor 8 (Rattus norvegicus) (UniProt P70579)
# Assay: rat mGluR8 modulators via GIRK flux, primary screen, cell-based, thallium flux, HTS (AID 488969)
# Conditions: HEK293 rat mGluR8, GIRK (G protein-gated inwardly rectifying potassium channel) thallium flux, FluoZin2; at 10 µM; stronger effect = higher value; submaximal glutamate (EC20) added with thallium
# Chain of UniProt P70579 (P70579 whole entry, looked up): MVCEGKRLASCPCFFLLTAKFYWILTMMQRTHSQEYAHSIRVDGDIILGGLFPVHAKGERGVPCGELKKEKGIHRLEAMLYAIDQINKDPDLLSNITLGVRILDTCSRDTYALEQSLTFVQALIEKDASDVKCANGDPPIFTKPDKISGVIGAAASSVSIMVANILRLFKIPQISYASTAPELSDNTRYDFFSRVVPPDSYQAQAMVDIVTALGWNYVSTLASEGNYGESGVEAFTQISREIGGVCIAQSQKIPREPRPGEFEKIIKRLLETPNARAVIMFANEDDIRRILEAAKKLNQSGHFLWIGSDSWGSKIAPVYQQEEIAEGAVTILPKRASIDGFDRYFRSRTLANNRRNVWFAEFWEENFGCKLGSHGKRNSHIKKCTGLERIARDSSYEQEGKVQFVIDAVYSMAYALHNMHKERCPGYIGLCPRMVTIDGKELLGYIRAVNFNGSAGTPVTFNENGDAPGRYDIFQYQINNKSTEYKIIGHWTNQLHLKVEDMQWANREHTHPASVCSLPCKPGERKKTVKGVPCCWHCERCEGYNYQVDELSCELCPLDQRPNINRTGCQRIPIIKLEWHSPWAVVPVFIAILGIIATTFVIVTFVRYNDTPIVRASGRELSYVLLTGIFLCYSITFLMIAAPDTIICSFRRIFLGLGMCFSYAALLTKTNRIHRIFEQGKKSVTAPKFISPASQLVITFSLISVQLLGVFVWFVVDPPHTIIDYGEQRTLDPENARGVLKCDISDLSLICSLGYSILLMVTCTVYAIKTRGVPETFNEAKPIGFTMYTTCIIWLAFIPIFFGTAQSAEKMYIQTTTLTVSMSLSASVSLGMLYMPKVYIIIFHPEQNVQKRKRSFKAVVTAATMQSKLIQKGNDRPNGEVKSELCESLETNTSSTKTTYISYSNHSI
row,SMILES,z-score
1,CC(=O)Nc1sc(N)nc1-c1ccccc1,-0.119
2,COc1ccc(N2CC(C(=O)OCC(=O)c3cccc(OC)c3)CC2=O)cc1 (stereo not drawn),0.459
3,O=C(Cn1cnc2c(nnn2Cc2ccc(F)cc2)c1=O)OCc1ccccc1,0.0615
4,CC(C)(C)c1sc(N)nc1-c1ccccc1,-0.349
5,CN(C)CCCNCCCCNC(=O)/C=N/O,0.0617
6,CCCC(=O)Nc1nn(C)c2nc3c(C)cccc3cc12,-0.168
7,Cc1c(NC(=O)C2CCCN(S(=O)(=O)c3cnc[nH]3)C2)c(=O)n(-c2ccccc2)n1C (stereo not drawn),1.18
8,CCCS(=O)(=O)NCc1cn2c(C)csc2n1,2.02
9,CCC(C)C(=O)Nc1cc(OC)c(OC)cc1C(=O)O (stereo not drawn),-0.0611
10,O=c1c(-c2ccccc2)nc(-c2ccccc2)cn1O,2.86
11,O=C(OCC(=O)N1CCN(c2ccccc2)CC1)c1ccc2ccccc2n1,-0.0809
12,CN1CCN(C(=O)C2C3C=CC(C3)C2C(=O)O)CC1 (stereo not drawn),-0.159
13,O=S(=O)(NC1CCCC1)c1ccccc1Cl,0.491
14,O=S(=O)(c1ccccc1F)N(Cc1ccco1)Cc1nnc(-c2ccccc2Br)o1,0.682
15,CNC(=S)NNC(=O)Cc1ccccc1,-0.0522
16,Cc1c(Br)c([N+](=O)[O-])nn1CC(=O)NCc1cccnc1,-0.135
17,CCc1ccc(/C=N/NC(=O)c2ccc(OC3CCCC3)cc2)s1,1.59

row,SMILES,z-score
1,CC(=O)C1=C(C)NC(SCC(=O)Nc2nc3ccccc3s2)=C(C#N)C1c1ccc(Cl)cc1 (stereo not drawn),-0.132
2,O=C(Oc1ccc(-c2nnco2)cc1)N1CCCCC1,-0.314
3,CNC(=S)N1CCN(c2ccc(OC)cc2)CC1,active: 8.68
4,CCNC(=S)N/N=C/c1cc(C)ccc1C,2.43
5,CCCOc1ccc(-c2nc(OCC)c3ccccc3n2)cc1,0.305
6,C=C(C)CSc1nc2c(c(=O)[nH]c(=O)n2C)n1CCC(C)C,-0.247
7,CCCc1nc2ccccc2c(C(=O)O)c1CC,0.148
8,CN1CCN(c2cc(=O)n(Cc3ccc(F)cc3)c(=O)[nH]2)CC1,0.313
9,O=C(Cn1c2[n+](c3ccc(C(F)(F)F)cc31)CCCCC2)Nc1ccccc1,1.55
10,O=C(CCCC(=O)N(CC(=O)NC1CCCCC1)CC1CCCO1)Nc1ccccn1 (stereo not drawn),0.155
11,CCn1c(CNc2ccc(Cl)cc2)nnc1SCCN1CCCCC1,-0.013
12,O=c1nc(N2CCCC2)nc(Nc2ccccc2)[nH]1,-0.464
13,CCN1CCN(c2nc(N)c([N+](=O)[O-])c(Nc3ccc(C)c(C)c3)n2)CC1,-0.561
14,COC(=O)c1ccccc1NC(=S)NC(NC(=O)c1ccco1)C(Cl)(Cl)Cl (stereo not drawn),active: 15.3
15,CCCSc1nc(C)c(CC(=O)OCC)c(=O)[nH]1,-0.322
16,CC1=NN(C(=O)c2csc(C)c2C)C(O)(C(F)(F)F)C1 (stereo not drawn),-0.282
